According to patent US20140045873A1, “NOVEL MICROBIOCIDES” (SYNGENTA PARTICIPATIONS AG, priority 2010, published 2014):

system: Blumeria graminis f. sp. tritici (Erysiphe graminis f. sp. tritici); details: in Triticum aestivum, foliar, read-out: control of Blumeria graminis (percent disease control compared to untreated)

Compound | pest or weed control at 200 ppm [%]
C/C(=N\OCCCc1cccc(-c2ccccn2)n1)c1cccc(C)n1 [P.01] | ≥ 80
C/C(=N\OCCCc1cccc(-c2nccc(C)n2)n1)c1cccc(C)n1 [P.02] | ≥ 80
C/C(=N\OCCCc1cccc(-c2ncccn2)n1)c1cccc(C)n1 [P.04] | ≥ 80
C/C(=N\OCCCc1cccc(-c2nc(C)cc(C)n2)n1)c1cccc(C)n1 [P.05] | ≥ 80
C/C(=N\OCCCc1cccc(-c2ccnc(C3CC3)n2)n1)c1cccc(C)n1 [P.07] | ≥ 80
COc1cc(C)nc(-c2cccc(CCCO/N=C(\C)c3cccc(C)n3)n2)c1 [P.11, 1-(6-methyl-pyridin-2-yl)-ethanone-O-[3-(4′-methoxy-6′-methyl-[2,2]bipyridinyl-6-yl)-propyl]-oxime] | ≥ 80
CCOc1cc(C)nc(-c2cccc(CCCO/N=C(\C)c3cccc(C)n3)n2)c1 [P.12] | ≥ 80
COc1cc(C)nc(-c2cccc(CCCO/N=C(\C)c3cc(C)cc(C)n3)n2)c1 [P.13] | ≥ 80
C/C(=N\OCCCc1cccc(-c2cc(OCc3ccccc3)cc(C)n2)n1)c1cccc(C)n1 [P.15] | ≥ 80
C/C(=N\OCCCc1cccc(-c2cc(Cl)cc(C)n2)n1)c1cccc(C)n1 [P.16, 1-(6-methyl-pyridin-2-yl)-ethanone-O-[3-(4′-chloro-6′-methyl-[2,2′]bipyridinyl-6-yl)-propyl]-oxime] | ≥ 80
CSc1cc(C)nc(-c2cccc(CCCO/N=C(\C)c3cccc(C)n3)n2)c1 [P.17] | ≥ 80
C/C(=N\OCCCc1cccc(-c2cc(Br)cc(C)n2)n1)c1cccc(C)n1 [P.18] | ≥ 80
C/C(=N\OCCCc1cccc(-c2cc(C)cc(C)n2)n1)c1cccc(C)n1 [P.19] | ≥ 80
CC(=O)c1ccc(-c2cccc(CCCO/N=C(\C)c3cccc(C)n3)n2)nc1C [P.20] | ≥ 80
C/C(=N\OCCCc1cccc(-c2cccc(C)n2)n1)c1cccc(C)n1 [P.21] | ≥ 80
CON=C(C)c1ccc(-c2cccc(CCCO/N=C(\C)c3cccc(C)n3)n2)nc1C [P.22] | ≥ 80
CCON=C(C)c1ccc(-c2cccc(CCCO/N=C(\C)c3cccc(C)n3)n2)nc1C [P.23] | ≥ 80
C#CCOc1cc(C)nc(-c2cccc(CCCO/N=C(\C)c3cccc(C)n3)n2)c1 [P.24] | ≥ 80
C=CCOc1cc(C)nc(-c2cccc(CCCO/N=C(\C)c3cccc(C)n3)n2)c1 [P.25] | ≥ 80

Compound | pest or weed control at 200 ppm [%]
CCCOc1cc(C)nc(-c2cccc(CCCO/N=C(\C)c3cccc(C)n3)n2)c1 [P.26] | ≥ 80
C/C(=N\OCCCc1cccc(-c2cc(OC(C)C)cc(C)n2)n1)c1cccc(C)n1 [P.27] | ≥ 80
CCOc1cc(C)nc(-c2cccc(CCCO/N=C(\C)c3cc(C)cc(C)n3)n2)c1 [P.28] | ≥ 80
C#CCOc1cc(C)nc(-c2cccc(CCCO/N=C(\C)c3cc(C)cc(C)n3)n2)c1 [P.29] | ≥ 80
C=CCOc1cc(C)nc(-c2cccc(CCCO/N=C(\C)c3cc(C)cc(C)n3)n2)c1 [P.30] | ≥ 80
CCCOc1cc(C)nc(-c2cccc(CCCO/N=C(\C)c3cc(C)cc(C)n3)n2)c1 [P.31] | ≥ 80
CCc1cc(OC)c(C)c(-c2cccc(CCCO/N=C(\C)c3cccc(C)n3)n2)n1 [P.33] | ≥ 80
CCOc1cc(CC)nc(-c2cccc(CCCO/N=C(\C)c3cccc(C)n3)n2)c1C [P.34] | ≥ 80
CCCOc1cc(CC)nc(-c2cccc(CCCO/N=C(\C)c3cccc(C)n3)n2)c1C [P.35] | ≥ 80
CCc1cc(OC(C)C)c(C)c(-c2cccc(CCCO/N=C(\C)c3cccc(C)n3)n2)n1 [P.36] | ≥ 80
C=CCOc1cc(CC)nc(-c2cccc(CCCO/N=C(\C)c3cccc(C)n3)n2)c1C [P.37] | ≥ 80
C#CCOc1cc(CC)nc(-c2cccc(CCCO/N=C(\C)c3cccc(C)n3)n2)c1C [P.38] | ≥ 80
CCc1cc(Cl)c(C)c(-c2cccc(CCCO/N=C(\C)c3cccc(C)n3)n2)n1 [P.39] | ≥ 80
CCc1cc(SC)c(C)c(-c2cccc(CCCO/N=C(\C)c3cccc(C)n3)n2)n1 [P.40] | ≥ 80
CCc1cc(Br)c(C)c(-c2cccc(CCCO/N=C(\C)c3cccc(C)n3)n2)n1 [P.41] | ≥ 80
CCc1ccc(C)c(-c2cccc(CCCO/N=C(\C)c3cccc(C)n3)n2)n1 [P.42] | ≥ 80
COc1cc(C)nc(-c2ccc(OC)c(CCCO/N=C(\C)c3cccc(C)n3)n2)c1 [P.43] | ≥ 80
COc1cc(C)nc(-c2cccc(CCCO/N=C(\C)c3nc(C)cc(C)n3)n2)c1 [P.44] | ≥ 80
C/C(=N\OCCCc1ccnc(-c2cccc(C)n2)n1)c1cccc(C)n1 [P.45, E-1-(6-methyl-2-pyridyl)-N-[3-[2-(6-methyl-2-pyridyl)pyrimidin-4-yl]propoxy]ethanimine] | ≥ 80
